Test results taken from PubChem BioAssay AID1508624 (National Center for Advancing Translational Sciences (NCATS), 2021).
The whole screen tested about 48,000 compounds, of which about 120 (0.25%) were called active. Another 4% or so got no clear call; they are omitted. Calls follow the shape of the dose curve; as a rule, active = well fitted activation curve with a large enough effect; inconclusive = small, poorly fitted or top-dose-only effect, or another doubt; inactive = no such curve, though single readings can be large or run the other way. This is one part of the list.

experiment: Primary qHTS for Identification of Small Molecule Activators of Huntingtin-Antisense Promoter Activity; details: HEK293 HTT-AS promoter firefly luciferase reporter, 24 h; series mostly up to 57.5 µM; activity change, positive = activation: at the top concentration; also: nearly all actives have a fitted effect of over 55% in size
Outline: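 Quantitative HTS used concentration series of up to 57.5 uM final on HEK293 luciferase reporter cells, 24 h at 37 degrees C. Readout was Dual-Glo firefly luminescence.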

Activity change, positive = activation, inactive:
CC(C)CCNC(=O)Cn1nc(N2CCN(c3ccccc3)CC2)ccc1=O -10.9%
Cc1ccccc1Cn1c2ccccc2c2cnn(CC(=O)NC3CCCCCC3)c(=O)c21 -5.88%
COc1ccc(Br)cc1Cn1nnc(C(=O)Nc2cccc(SC)c2)c1N -30.4%
CC[C@@H](C)[C@H](NC(=O)[C@H](CC1CCCCC1)NC(=O)c1ccno1)C(=O)N1CCC2(CCc3ccccc32)CC1 -20.7%
COc1ccc(OC)c(C2C(C(=O)Nc3ccc(C)cc3)=C(C)Nc3nnnn32)c1 (stereo not given) -17.4%
Cc1ccc(NC(=O)c2ccc(CN3CC(=O)N4CCCCC4C3=O)cc2)c(Cl)c1 (stereo not given) -12.3%
CN(CC(=O)Nc1cccc(F)c1)S(=O)(=O)c1ccc2c(c1)n(C)c(=O)c(=O)n2C 17.8%
CSc1cccc(NC(=O)c2cc3c(COC(C)=O)cnc(C)c3oc2=O)c1 -12.7%
COc1cc(CNC(=O)c2cc3n(n2)CCCN(Cc2cccc(F)c2)C3=O)cc(OC)c1OC -11.5%
CC(=O)c1cccc(NC(=O)CSc2ncc3c(n2)-c2cc(Cl)ccc2N(Cc2ccccc2)S3(=O)=O)c1 -12.2%
O=C(CC(c1cccs1)N1Cc2ccccc2C1=O)Nc1ccc(F)cc1 (stereo not given) -17.2%
COc1ccc(S(=O)(=O)NCc2nc(-c3ccccc3)no2)cc1 -23.2%
O=C(c1cc2c(Cl)nc3ccccc3c2s1)N1CCCCC1 21.3%
Oc1ccc(-c2nc3ccc(Cl)cn3c2Nc2ccc(Cl)cc2)cc1 -39.2%
COc1ccc(Cn2ccc3nc(C)c(C(=O)NCc4ccc(SC)cc4)cc3c2=O)cc1 -24.6%
Cc1ccccc1NC(=O)Cn1nc(-c2ccccc2)nc(Cc2ccccc2)c1=O -4.84%
Cc1ccc(CNS(=O)(=O)c2cnc(N)nc2)cc1 -10.1%
COc1ccc(CNC(=O)CSc2nnc(C)c3c(C)n(-c4ccccc4)nc23)c(OC)c1 -35.8%
CCc1ccc2ncc3c(-c4ccc(C)cc4)nn(CC(=O)NCc4ccccc4)c3c2c1 -5.32%
CSc1ncc(C(=O)NCc2cccc(C)c2)c(-c2ccccc2)n1 -20.3%
COc1ccccc1/C=C/C(=O)Nc1nc2n(n1)C(c1ccc(F)cc1)C=C(c1ccccc1)N2 (stereo not given) -20.7%
Cc1ccc(OCCn2c(C3CC(=O)N(Cc4ccc(F)cc4)C3)nc3ccccc32)c(C)c1 (stereo not given) -46.6%
C=CCc1ccccc1OCCSc1nc(-c2ccccc2F)nc2cc(=O)[nH]n12 7.86%
O=S(=O)(NCC(c1ccccc1)N1CCc2ccccc21)c1ccc(Cl)cc1 (stereo not given) -39.6%
COc1ccc(C(=O)c2cn(Cc3ccccc3OC)c3cc4c(cc3c2=O)OCO4)cc1 -3.6%
Cc1cccc(N2CCN(c3nc4ccccc4c4nnc(C)n34)CC2)c1C -12.8%
CCN(CC)C(=O)c1sc2c(c1C)c(=O)n(-c1ccc(OC)cc1OC)c(=O)n2CC(=O)Nc1ccccc1 -11.3%
COC(=O)c1ccc(NC(=O)CC2C(=O)N(c3ccccc3)C(=O)N2Cc2cccs2)cc1 (stereo not given) -5.34%
Cc1cc(C)cc(-n2ccnc2SCC(=O)Nc2ccccc2F)c1 -23.7%
O=C(CN1C(=O)COc2ccc(S(=O)(=O)N3CCCCCC3)cc21)N1CCN(c2ccc(Cl)cc2)CC1 -23.9%
CCOC(=O)c1ccc(NC(=O)CC(C)n2nc(C)cc2C)cc1 (stereo not given) 0.0719%
COc1cc(NC(=O)Cc2noc3ccccc23)cc(OC)c1OC -11.9%
Cc1cccc(-n2ncc3c(NNC(=O)c4ccccc4Cl)ncnc32)c1 -23.2%
COc1ccc(-c2ccc(=O)n(CC(=O)Nc3cc(OC)ccc3OC)n2)cc1 -15%
O=c1[nH]c(C2CCCN(S(=O)(=O)c3ccccc3)C2)nc2c1nnn2Cc1ccccc1Br (stereo not given) -30.3%
CCOC(=O)c1cccc(NC(=O)Nc2c(C)n(C)n(-c3ccccc3)c2=O)c1 -3.39%
COc1ccc(CNC(=O)c2cc(-c3ccc(Br)s3)nc3ccccc23)cc1 -9.73%
Cc1ccc(C)c(Nc2nn3c(=O)c4ccc(C(=O)NCc5ccccc5)cc4nc3s2)c1 -23.4%
Cc1cccc(C)c1NC(=O)Cn1cc(C(=O)C2CC2)c2ccccc21 -17.4%
Cc1nn(CCC(=O)Nc2cccc(C#N)c2)c(C)c1S(=O)(=O)N1CCCCC1 -35.8%
COc1cccc(C(=O)Nc2nnc(S(=O)(=O)N3CCCc4ccccc43)s2)c1 -28.8%
CCCCN(CC)CCCNC(=O)c1cn(C)c(=O)c2c1c1ccccc1n2C -11.6%
CCS(=O)(=O)NCCc1csc2nc(-c3ccc(OC)cc3)nn12 -5.17%
COc1ccc(OC)c(S(=O)(=O)NCCS(=O)(=O)N2CCN(c3ccccc3F)CC2)c1 -18.3%
CCc1cnc2c(c1SCc1cc(OC)cc(OC)c1)c(=O)n(C)c(=O)n2C -6.38%
Cc1ccc(C)c(CN2C(=O)c3ccccc3S(=O)c3ccc(C(=O)N4CCCCC4)cc32)c1 (stereo not given) -6.76%
CCCc1nnc(SCc2cc(=O)c3c(C)cc(C)cc3[nH]2)n1C -9.33%
CCc1nnc(NC(=O)CSc2nccn2Cc2ccc(Cl)cc2)s1 -12.3%
O=C(Nc1ccc(F)cc1F)C1CCN(C(=O)c2cnn(-c3ccccc3)c2-n2cccc2)CC1 -31.7%
O=C(NCC(c1ccc2c(c1)OCO2)N1CCN(c2ccccc2)CC1)c1ccc(F)c(F)c1 (stereo not given) -32.9%
CCCN[C@H]1CCc2nc(N)sc2C1
C=CCC(CC=C)(CNC(=O)C(=O)Nc1ccc(Br)cc1)c1ccc(OC)c(OC)c1 -15%
CC(C)(C)Cn1c(N)nc2ccc(-c3[nH]c(C(C)(C)C)nc3-c3ccc(F)cc3)nc21 -31.3%
O=C(NCc1cccc(Cl)c1)c1cnc(N2CCOCC2)c2ccccc12 -16.1%
CCc1ccc(CNC(=O)Cn2nc(C)c3nn(-c4ccc(Cl)cc4)c(C)c3c2=O)cc1 -48%
CCOc1ccc(NS(=O)(=O)c2c(C)nc3sc(CC)nn3c2=O)cc1 -28.6%
COCCNC(=O)c1ccc2c(c1)ncn2-c1cc(C)ccc1OC -8.56%
Cn1cccc1-c1cc2n(n1)CCC(=O)N2CCCC(=O)NCc1cccc(Cl)c1 4.5%
CSc1ccc(CCNC(=O)c2ccc(-n3c(C)cc4c3CCC(C)C4)cc2)cc1 (stereo not given) 0.603%
COc1ccc2c(c1)c(CC(=O)Nc1c(C)cccc1C)c(C)n2C(=O)c1ccc(Cl)cc1 -37.9%
COc1ccc(C(=O)CC2(O)C(=O)Nc3c(Cl)ccc(Cl)c32)cc1 (stereo not given) -40.5%
COc1ccc(OCC(=O)NCc2ccc3c(c2)CCN3C(=O)c2cccc(C)c2)cc1 -29.6%
CC(=O)N1CCCC1c1nc2ccccc2n1Cc1cccc(C)c1 (stereo not given) -8.83%
CCOc1ccccc1NC(=O)Cn1c(=O)n(-c2ccc(C)cc2)c(=O)c2c1cnn2C -14.3%
Cc1cc(C)cc(NC(=O)CCn2cnc3ccccc3c2=O)c1 5.15%
CC(C)c1ccc(C2NC(=O)c3c(sc4c3CCN(C)C4)N2)cc1 (stereo not given) 5.5%
COc1ccc(NC(=O)c2ccc(NC(=O)CCS(=O)(=O)c3cccs3)cc2)cc1Cl -6.1%
Cc1ccc(-n2nnnc2SCC(=O)NCCc2ccccc2)cc1C -7.32%
CCOc1ccc(N(CC(=O)OC)S(=O)(=O)c2ccc3c(c2)n(C)c(=O)c(=O)n3C)cc1 -7.38%
CCC(C)NC(=O)Cn1c(=O)n(-c2ccc(Cl)cc2)c(=O)c2c3c(sc21)CCCC3 (stereo not given) -4.61%
Cc1ccc(C)c(N2CCN(C(=O)c3c(C)oc4nc(C)nc(N5CCOCC5)c34)CC2)c1 -20.7%
CCCCC(=O)OC1=CN(Cc2ccccc2)S(=O)(=O)c2ccccc21 -3.37%
CC(CC(=O)Nc1ccc(F)cc1)S(=O)(=O)c1cc2c3c(c1)CCN3C(=O)CC2 (stereo not given) 6.12%
Cc1cc(=O)oc2cc(O)ccc12
COc1ccc(N2CCN(C(=O)C(CC(C)C)NS(=O)(=O)c3ccc4nc(C)sc4c3)CC2)cc1 (stereo not given) -22.9%
O=C(NC1CCCCC1)c1ccc2c(c1)N(Cc1cccc(Cl)c1)C(=O)c1ccccc1S2(=O)=O -7.14%
Cc1ccc(CNc2cc(C)nc3nc(-c4ccc(C)cc4)nn23)cc1 27.6%
COC(=O)c1ccccc1NC(=O)CSc1nc2ccccc2nc1Cc1ccc(F)cc1 0.249%
Cc1nnc(NC(=O)CSc2nccn2Cc2ccccc2)s1 -17.2%
Cc1ccc(C(=O)Nc2cc(-c3cn4cccnc4n3)ccc2C)cc1C 0.679%
CSCCC(NS(=O)(=O)c1ccc2c(c1)oc(=O)n2C)C(=O)NCc1ccc(Cl)cc1 (stereo not given) -1.65%
O=C(Nc1cc(-c2cccc(Cl)c2)nn1-c1ccccc1)c1ccccc1F 4%
CCc1ccccc1S(=O)(=O)Cc1ccc(C(=O)NCCc2ccc(Cl)cc2)o1 -43%
CCS(=O)(=O)c1ncc(N(Cc2ccccc2)Cc2ccco2)c(C(=O)Nc2ccccc2C)n1 -20.5%
CC(C)CCNc1nc(Nc2ccccc2)c2cnn(C)c2n1 -5.33%
NCC[C@H](O)C(=O)N[C@@H]1C[C@H](N)[C@@H](O[C@H]2O[C@H](CN)[C@@H](O)[C@H](O)[C@@H]2O)[C@H](O)[C@@H]1O[C@H]1O[C@H](CO)[C@@H](O)[C@H](N)[C@@H]1O -2.89% [at 0.74 µM, percent change from vehicle, -100% = no light]
O=C(Cc1ccc(Cl)cc1)NCCc1csc2nc(-c3ccccc3F)nn12 -14.5%
CCC(C)(C)NC(=O)C(NS(=O)(=O)c1cccs1)c1ccccc1 (stereo not given) -17.7%
Cc1cc(F)ccc1Nc1nc2ccc(Cl)cc2n2cnnc12 -4.06%
CCOC(=O)c1ccc(-n2c(CCC(=O)O)ccc2-c2ccccc2)cc1O -3.74%
O=C(O)Cc1ccc2c(c1)C(=O)c1ccccc1CO2 25.4%
CCc1ccc(-c2nc3cc(NC(=O)c4ccc(C)c(C)c4)ccc3o2)cc1 -6.5%
Cc1c(NC(=O)c2cccs2)cccc1-c1nc2cc(Cl)ccc2o1 -9.78%
COc1ccc(S(=O)(=O)n2nc(-c3ccco3)nc2NCc2ccc(C(C)C)cc2)cc1 -3.26%
CCOc1ccc(NC(=O)c2nc(S(=O)(=O)Cc3ccccc3F)ncc2Cl)cc1 -96.1%
